Assay results: the supplement of paper PMC8728848
This is one part of the list.

How the values were obtained:
Assay in all cases: glycan array binding signal (z-score within array); higher = stronger binding
Settings in all cases: glycan notation: IUPAC condensed, linker removed
[1] = molecular target: Fuc(a1-2)[GalNAc(a1-3)]Gal(b1-4)[Fuc(a1-3)]GlcNAc
In short: (§1)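 Arrays were curated from the Consortium for Functional Glycomics database, 3228 in total, and kept only where the protein sequence was available. Binding is expressed as a within-array Z-score. This score was averaged across arrays of the same protein sequence at different concentrations or buffers and across linkers, and negative values can be read as non-binding.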

[2] = molecular target: Fuc(a1-2)[GalNAc(a1-4)]Gal(b1-4)GlcNAc
In short: as §1

[3] = molecular target: Fuc(a1-2)[GalNAc(b1-3)]Gal
In short: as §1

Fuc(a1-3)GlcNAc = molecular target: Fuc(a1-3)GlcNAc
In short: as §1

[4] = molecular target: Fuc(a1-3)[Gal(b1-4)]Glc6S
In short: as §1

[5] = molecular target: Fuc(a1-3)[Gal(b1-4)]GlcNAc
In short: as §1

[6] = molecular target: Fuc(a1-3)[Gal(b1-4)]GlcNAc(b1-2)Man(a1-3)[Fuc(a1-3)[Gal(b1-4)]GlcNAc(b1-2)Man(a1-6)]Man(b1-4)GlcNAc(b1-4)GlcNAc
In short: as §1

[7] = molecular target: Fuc(a1-3)[Gal(b1-4)]GlcNAc(b1-2)Man(a1-6)[Gal(b1-4)GlcNAc(b1-2)Man(a1-3)]Man(b1-4)GlcNAc(b1-4)GlcNAc
In short: as §1

[8] = molecular target: Fuc(a1-3)[Gal(b1-4)]GlcNAc(b1-3)Gal(b1-3)[Fuc(a1-4)]GlcNAc
In short: as §1

[9] = molecular target: Fuc(a1-3)[Gal(b1-4)]GlcNAc(b1-4)Gal(b1-4)[Fuc(a1-3)]GlcNAc
In short: as §1

[10] = molecular target: Fuc(a1-3)[Gal(b1-4)]GlcNAc(b1-4)Gal(b1-4)[Fuc(a1-3)]GlcNAc(b1-4)Gal(b1-4)[Fuc(a1-3)]GlcNAc
In short: as §1

[11] = molecular target: Fuc(a1-3)[Gal(b1-4)]GlcNAc6S
In short: as §1

[12] = molecular target: Fuc(a1-3)[Gal3S(b1-4)]Glc6S
In short: as §1

[13] = molecular target: Fuc(a1-3)[Gal3S(b1-4)]GlcNAc
In short: as §1

[14] = molecular target: Fuc(a1-3)[Gal3S(b1-4)]GlcNAc6S
In short: as §1

[15] = molecular target: Fuc(a1-3)[GalNAc(b1-4)]GlcNAc
In short: as §1

Fuc(a1-4)GlcNAc = molecular target: Fuc(a1-4)GlcNAc
In short: as §1

Fuc(b1-3)GlcNAc = molecular target: Fuc(b1-3)GlcNAc
In short: as §1

Gal(a1-2)Gal = molecular target: Gal(a1-2)Gal
In short: as §1

Gal(a1-3)Gal = molecular target: Gal(a1-3)Gal
In short: as §1

Gal(a1-3)Gal(b1-3)GlcNAc = molecular target: Gal(a1-3)Gal(b1-3)GlcNAc
In short: as §1

Gal(a1-3)Gal(b1-4)Glc = molecular target: Gal(a1-3)Gal(b1-4)Glc
In short: as §1

Gal(a1-3)Gal(b1-4)GlcNAc = molecular target: Gal(a1-3)Gal(b1-4)GlcNAc
In short: as §1

[16] = molecular target: Gal(a1-3)Gal(b1-4)[Fuc(a1-3)]GlcNAc
In short: as §1

Gal(a1-3)GalNAc = molecular target: Gal(a1-3)GalNAc
In short: as §1

[17] = molecular target: Gal(a1-3)[Gal(a1-4)]Gal(b1-4)GlcNAc
In short: as §1

Gal(a1-4)Gal(b1-4)Glc = molecular target: Gal(a1-4)Gal(b1-4)Glc
In short: as §1

Gal(a1-4)Gal(b1-4)GlcNAc = molecular target: Gal(a1-4)Gal(b1-4)GlcNAc
In short: as §1

Gal(a1-4)GlcNAc = molecular target: Gal(a1-4)GlcNAc
In short: as §1

Gal(a1-6)Glc = molecular target: Gal(a1-6)Glc
In short: as §1

Gal(b1-2)Gal = molecular target: Gal(b1-2)Gal
In short: as §1

Gal(b1-3)Gal = molecular target: Gal(b1-3)Gal
In short: as §1

Gal(b1-3)Gal(b1-4)GlcNAc = molecular target: Gal(b1-3)Gal(b1-4)GlcNAc
In short: as §1

Gal(b1-3)GalNAc = molecular target: Gal(b1-3)GalNAc
In short: as §1

[18] = molecular target: Gal(b1-3)GalNAc(b1-3)Gal(a1-4)Gal(b1-4)Glc
In short: as §1

[19] = molecular target: Gal(b1-3)GalNAc(b1-4)Gal(b1-4)Glc
In short: as §1

[20] = molecular target: Gal(b1-3)GalNAc(b1-4)[Neu5Ac(a2-3)]Gal(b1-4)Glc
In short: as §1

Gal(b1-3)GlcNAc = molecular target: Gal(b1-3)GlcNAc
In short: as §1

[21] = molecular target: Gal(b1-3)GlcNAc(b1-2)Man(a1-3)[Gal(b1-3)GlcNAc(b1-2)Man(a1-6)]Man(b1-4)GlcNAc(b1-4)GlcNAc
In short: as §1

[22] = molecular target: Gal(b1-3)GlcNAc(b1-3)Gal(b1-3)GlcNAc
In short: as §1

[23] = molecular target: Gal(b1-3)GlcNAc(b1-3)Gal(b1-4)Glc
In short: as §1

[24] = molecular target: Gal(b1-3)GlcNAc(b1-3)Gal(b1-4)GlcNAc
In short: as §1

[25] = molecular target: Gal(b1-3)[Fuc(a1-4)]GlcNAc
In short: as §1

[26] = molecular target: Gal(b1-3)[Fuc(a1-4)]GlcNAc(b1-3)Gal(b1-3)[Fuc(a1-4)]GlcNAc
In short: as §1

[27] = molecular target: Gal(b1-3)[Fuc(a1-4)]GlcNAc(b1-3)Gal(b1-4)GlcNAc
In short: as §1

B1: MD-2 (Homo sapiens) (protein)
chain: MLPFLFFSTLFSSIFTEAQKQYWVCNSSDASISYTYCDKMQYPISINVNPCIELKGSKGLLHIFYIPRRDLKQLYFNLYITVNTMNLPKRKEVICRGSDDDYSFCRALKGETVNTTISFSFKGIKFSKGKYKCVVEAISGSPEEMLFCLEFVILHQPNSN
- glycan array binding signal (z-score) [1]: -0.413
- glycan array binding signal (z-score) [2]: -0.152
- glycan array binding signal (z-score) [3]: -0.302
- glycan array binding signal (z-score) (Fuc(a1-3)GlcNAc): -0.342
- glycan array binding signal (z-score) [4]: -0.026
- glycan array binding signal (z-score) [5]: -0.281
- glycan array binding signal (z-score) [6]: -0.106
- glycan array binding signal (z-score) [7]: -0.269
- glycan array binding signal (z-score) [8]: -0.22
- glycan array binding signal (z-score) [9]: -0.147
- glycan array binding signal (z-score) [10]: -0.473
- glycan array binding signal (z-score) [11]: -0.146
- glycan array binding signal (z-score) [12]: 0.52
- glycan array binding signal (z-score) [13]: -0.144
- glycan array binding signal (z-score) [14]: 1.79
- glycan array binding signal (z-score) [15]: -0.204
- glycan array binding signal (z-score) (Fuc(a1-4)GlcNAc): -0.178
- glycan array binding signal (z-score) (Fuc(b1-3)GlcNAc): -0.172
- glycan array binding signal (z-score) (Gal(a1-2)Gal): -0.401
- glycan array binding signal (z-score) (Gal(a1-3)Gal): -0.429
- glycan array binding signal (z-score) (Gal(a1-3)Gal(b1-3)GlcNAc): -0.326
- glycan array binding signal (z-score) (Gal(a1-3)Gal(b1-4)Glc): -0.408
- glycan array binding signal (z-score) (Gal(a1-3)Gal(b1-4)GlcNAc): -0.33
- glycan array binding signal (z-score) [16]: -0.342
- glycan array binding signal (z-score) (Gal(a1-3)GalNAc): -0.399
- glycan array binding signal (z-score) [17]: -0.519
- glycan array binding signal (z-score) (Gal(a1-4)Gal(b1-4)Glc): 0.306
- glycan array binding signal (z-score) (Gal(a1-4)Gal(b1-4)GlcNAc): -0.184
- glycan array binding signal (z-score) (Gal(a1-4)GlcNAc): -0.191
- glycan array binding signal (z-score) (Gal(a1-6)Glc): 0.305
- glycan array binding signal (z-score) (Gal(b1-2)Gal): -0.261
- glycan array binding signal (z-score) (Gal(b1-3)Gal): -0.376
- glycan array binding signal (z-score) (Gal(b1-3)Gal(b1-4)GlcNAc): -0.448
- glycan array binding signal (z-score) (Gal(b1-3)GalNAc): -0.356
- glycan array binding signal (z-score) [18]: -0.306
- glycan array binding signal (z-score) [19]: -0.228
- glycan array binding signal (z-score) [20]: -0.325
- glycan array binding signal (z-score) (Gal(b1-3)GlcNAc): -0.407
- glycan array binding signal (z-score) [21]: -0.471
- glycan array binding signal (z-score) [22]: -0.245
- glycan array binding signal (z-score) [23]: -0.2
- glycan array binding signal (z-score) [24]: -0.323
- glycan array binding signal (z-score) [25]: -0.246
- glycan array binding signal (z-score) [26]: -0.351
- glycan array binding signal (z-score) [27]: -0.258
